# About 12,000 (3.5%) of roughly 340,000 compounds were called active. This list was built around the results that the source calls inconclusive (neither active nor inactive); the mix of calls is not that of the screen. The call rests on the fitted dose curve; in most records, active means well fitted inhibition curve with a large enough effect; inconclusive means small, poorly fitted or top-dose-only effect, or another doubt; inactive means no such curve, though single readings can be large or run the other way. Potencies of inconclusive entries are left out as doubtful fits.
# Assay: qHTS Assay for Inhibitors of Hepatitis C Virus (HCV)
# Details: Huh7.5.1 HCVcc-Cre (HCVcc is cell-culture hepatitis C virus) infection, luciferase reporter, 44 h; series mostly up to 41.8 µM
# Procedure, shortened: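 Cells seeded at 1,000/well and cultured 4 h, then compounds added followed by HCVcc-Cre virus (~0.5 moi). After 44 h further culture, luciferase substrate was added, plates held 15 min at room temperature, and luminescence read for 15 sec.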
# Potency means the concentration at half of the fitted maximal effect; tags describe the fitted curve by direction and shape.
row,SMILES,Potency
1,CC1(c2ccccc2)CC(C)(C)N(C(N)=O)c2ccccc21 (stereo not given),"inconclusive [inhibitor, partial curve]"
2,CSc1cccc(NC(=O)COc2ccccc2)c1,inactive
3,COc1ccc(NC(=O)c2ccc(-c3ccc(C)c4ccccc34)o2)cc1,"inconclusive [inhibitor, partial curve]"
4,CNC(=S)N1N=C(c2cccs2)CC1c1ccc(OC)cc1 (stereo not given),"inconclusive [inhibitor, single point]"
5,Cc1ccccc1-n1c(SCC(=O)Nc2ccccc2)nc2nc3c(cc2c1=O)CCCC3,"inconclusive [inhibitor, single point]"
6,O=C(CSc1ccc(-c2ccccn2)nn1)Nc1ccc(F)c(F)c1,active: 10 µM
7,Clc1ccc(Cn2cc(/C=N/n3cnnc3)c3ccccc32)cc1,active: 10 µM
8,Cc1ccc(CSC2=NCCN2C(=O)C(C)Oc2ccccc2)cc1 (stereo not given),inactive
9,CC(C)=C1C2CCC1C1C(=O)N(c3nc(-c4ccc(F)cc4)c(C)s3)C(=O)C21 (stereo not given),"inconclusive [inhibitor, single point]"
10,CCSc1cc(N2CCCC2)nc(-c2ccc(Cl)cc2)n1,inactive
11,Cc1onc(-c2ccccc2Cl)c1C(=O)OCC(=O)N1CCCc2ccccc21,"inconclusive [inhibitor, single point]"
12,COC(=O)C(Cc1ccc(N(CCCl)CCCl)cc1)N=Cc1ccccc1O (stereo not given),"inconclusive [inhibitor, full curve, poor fit]"
13,Cc1ccc(C(=O)Nc2ncc(Cc3ccccc3)s2)o1,"inconclusive [inhibitor, partial curve]"
14,O=C(/C=C/c1ccc(S(=O)(=O)NCc2ccco2)cc1)NCc1cccc(Cl)c1,"inconclusive [inhibitor, partial curve, poor fit]"
15,COc1ccc(NC(=O)CN(C)C(=O)c2ccc(NC3CC3)c([N+](=O)[O-])c2)cc1,"inconclusive [inhibitor, single point]"
16,COc1ccc(N(CCCN2C(=O)c3cccc4cccc(c34)C2=O)C(=O)c2cccs2)cc1,"inconclusive [inhibitor, single point]"
17,COc1ccc(S(=O)(=O)N(C)C)cc1NC(=O)CN1CCN(C(=O)C2CC2)CC1,active: 10 µM
18,Cc1ccc(C(C)C)c(OCC(=O)Nc2ccc3c(c2)nc(CCN2CCCCC2)n3C)c1,active: 10 µM
19,Cn1c(CNc2ccc(Cl)cc2)nc2ccccc21,active: 20 µM
20,N#Cc1ccccc1COc1cccc2c1CCCC2O (stereo not given),"inconclusive [inhibitor, full curve, poor fit]"
21,O=C(Nc1nc(-c2cccs2)c(C(=O)C(F)(F)F)s1)c1ccccc1,"inconclusive [inhibitor, partial curve]"
22,CCC(C)Nc1cc(C)c(C#N)c2nc3ccccc3n12 (stereo not given),"inconclusive [inhibitor, partial curve]"
23,CCn1ncc(CN2CCCC(C(=O)Nc3cccc(-c4cc5ccccc5[nH]4)c3)C2)c1C (stereo not given),"inconclusive [inhibitor, partial curve]"
24,COc1ccc(NC(=O)/C=C/c2ccco2)cn1,inactive

row,SMILES,Potency
1,Cc1ccc(/C=N/NC(=O)c2cccc([N+](=O)[O-])c2)o1,inactive
2,O=C(NCCc1ccccc1)C(=O)NCCC1CCCCN1S(=O)(=O)c1cccs1 (stereo not given),"inconclusive [inhibitor, single point]"
3,CCOc1ccccc1NC(=O)CCCN1C(=S)NC(C)(C)CC1C (stereo not given),"inconclusive [inhibitor, partial curve]"
4,CCSc1nc2c(c(=O)n1CC)SC(C)C2 (stereo not given),inactive
5,Cc1cc(-n2c(C)cc(C(=O)CSc3nncn3C)c2C)no1,"inconclusive [inhibitor, partial curve]"
6,CCOc1ccc(N(C(=O)c2snc(C(N)=O)c2N)C(C(=O)NCC2CCCO2)c2c[nH]c3ccccc23)cc1 (stereo not given),"inconclusive [inhibitor, single point]"
7,CCOc1ccc(N(CC(=O)Nc2cccc(OC)c2)S(=O)(=O)c2c(C)noc2C)cc1,"inconclusive [inhibitor, single point]"
8,O=C(CSc1nnc(C2CC2)n1Cc1ccccc1)c1ccc(S(=O)(=O)N2CCOCC2)cc1,"inconclusive [inhibitor, single point]"
9,C[C@H]1CN([C@@H](C)CO)C(=O)Cc2cc(NC(=O)CCC(F)(F)F)ccc2O[C@H]1CN(C)CC1CC1,inactive
10,COCCN(Cc1cc2c(C)cc(C)cc2nc1Cl)C(=O)c1ccccc1F,"inconclusive [inhibitor, partial curve]"
11,CN1CC[C@@]23CCCC[C@@H]2[C@@H]1Cc1ccc(O)cc13,"inconclusive [inhibitor, partial curve, poor fit]"
12,Cc1ccc(Cl)cc1NC(=S)N1CCCCCC1,inactive
13,COCC(C)NC(=S)NCCc1ccc(Cl)cc1Cl (stereo not given),"inconclusive [inhibitor, single point]"
14,CCN(CC)CCN(Cc1cc2ccc(C)c(C)c2[nH]c1=O)C(=S)NCc1ccco1,"inconclusive [inhibitor, single point]"
15,CC(=O)N1CCN(C(=O)c2c(-c3ccccc3)noc2C)CC1,inactive
16,COc1ccc(S(=O)(=O)N2CC3CCCN3c3ccc(C(F)(F)F)cc32)cc1 (stereo not given),"inconclusive [inhibitor, full curve]"
17,Cc1cc(C)n(-c2ccc(C(=O)OC(C)C(=O)Nc3ccc(C(N)=O)cc3)cc2)n1 (stereo not given),"inconclusive [inhibitor, full curve]"
18,CC1CN(C(=S)Nc2ccc(Br)cc2)CC(C)O1 (stereo not given),inactive
19,COc1cc(NC(=O)c2ccc(C)cc2)c(OC)cc1NC(=O)CN1CCCCC1,"inconclusive [inhibitor, full curve]"
20,CCOC(=O)Nc1ccc2c(c1)N(C(=O)CCN1CCOCC1)c1ccccc1S2,"inconclusive [inhibitor, full curve, poor fit]"
21,O=C(NCC(=O)N(Cc1ccccc1)C(C(=O)NC1CCCC1)c1cccnc1)c1ccco1 (stereo not given),inactive
22,COc1ccc(OC)c(CCNC(=O)Cn2nc(C)c3c(C)n(-c4ccccc4)nc3c2=O)c1,"inconclusive [inhibitor, single point]"
23,CCOC(=O)c1c(CSc2ccc(C)cc2)n(C)c2cc(Br)c(O)c(CN(C)C)c12,"inconclusive [inhibitor, single point]"
24,CC(=O)c1ccc(NC(=O)CN2C(=O)/C(=C/C=C/c3ccccc3)SC2=S)cc1,"inconclusive [inhibitor, full curve]"

row,SMILES,Potency
1,CC1(C)C(C=C(Cl)Cl)C1C(=O)N/N=C/c1ccccc1F (stereo not given),inactive
2,CC1=NN(C(=O)c2ccccc2)C(O)(c2ccc(Br)cc2)C1 (stereo not given),"inconclusive [inhibitor, single point]"
3,C=Cc1ccc(C(=O)NC2CCCN(Cc3ccccc3F)C2)cc1 (stereo not given),inactive
4,CC(C)[C@@H]1NC(=O)c2cc([N+](=O)[O-])cc(I)c2OCC[C@@H](C(N)=O)NC(=O)[C@H](CCC(=O)O)NC1=O,inactive
5,COc1ccccc1OCC(=O)Nc1ccc(S(=O)(=O)Nc2cc(C)on2)cc1,inactive
6,O=C(C1=C[C@H](C2CCCCC2)C[C@H](OCCCCO)O1)N1CCN(Cc2ccc3c(c2)OCO3)CC1,"inconclusive [inhibitor, single point]"
7,Cc1cc(Cl)cc(C)c1OCCCCn1ccnc1,"inconclusive [inhibitor, single point]"
8,CC(C)C(c1nnnn1Cc1ccc(F)cc1)N1CCC(C(N)=O)CC1 (stereo not given),inactive
9,O=C(c1ccccc1)N(c1ccccc1)c1nccc2ccccc12,inactive
10,CN(CC(=O)NCc1ccccc1Cl)CC(=O)Nc1cccc(F)c1,"inconclusive [inhibitor, partial curve]"
11,Oc1c(Br)cc(Br)cc1/C=N/n1c(-c2ccccc2)n[nH]c1=S,"inconclusive [inhibitor, single point]"
12,CCCCN(C1CCS(=O)(=O)C1)S(=O)(=O)c1cccs1 (stereo not given),inactive
13,Cc1cnccc1CN(C)Cc1nc(Cc2ccccc2Cl)no1,"inconclusive [inhibitor, partial curve]"
14,Nc1cc2nsnc2cc1Br,"inconclusive [inhibitor, single point]"
15,CCOC(=O)C1(CCOc2ccccc2)CCN(Cc2cccn2-c2ncccn2)CC1,inactive
16,O=C(NCc1cccc(C(F)(F)F)c1)c1cccc2c1C(=O)c1ccc(N3CCC(Cc4ccccc4)CC3)cc1S2(=O)=O,"inconclusive [inhibitor, partial curve]"
17,Cc1ccc(NC(=O)c2ccc(-c3nn(C)c(=O)c4ccccc34)cc2)c(C)c1,"inconclusive [inhibitor, partial curve]"
18,CCOc1cc(CNCc2ccccn2)ccc1OCC(=O)NC1CCCCC1,"inconclusive [inhibitor, single point]"
19,Cc1ccc(C(=O)CC(=O)c2ccc(C)cc2O)cc1,"inconclusive [inhibitor, single point]"
20,N#C/C(=C\c1cccc([N+](=O)[O-])c1)C(=O)Nc1cccnc1,inactive
21,O=C1[C@H](Cc2ccccc2)NCCCC[C@@H](c2ccc(Cl)cc2)N1Cc1ccccc1,inactive
22,COc1cc(N/C=C(\C(C)=O)c2ccccc2)cc(OC)c1,inactive

# — PubChem BioAssay AID651820 (National Center for Advancing Translational Sciences (NCATS), 2012)
